These results are taken from the supplement of paper PMC10126150.

Sequences with one replicate were seen in a single cluster, so their values are uncertain.
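Also: ATP exposure 15 min at 22 °C before imaging.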

The data set relates to ATP. Kind of data set: switch fluorescence ratio, 500 uM ATP over buffer (Cy3 cluster intensity, sum of 5 cycles each) (fold (ratio)); higher = stronger signal-on switching upon ATP binding; sequences stand for … in TCGTCGGCAGCGTCAGATGTGTATAAGAGACAGTTTTTTTTTTTTTTTTTTTTTTTTT…TC. As to conditions: aptamer strand: ATP DNA aptamer (quencher-CACCTGGGGGAGTATTGCGGAGGAAGG + anchor), 100 nM annealed; ATP concentration: 500 uM; one replicate. In short, it runs like this:
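Five buffer/ATP imaging cycles were run on Cy3-labelled switching-strand clusters on a modified Illumina MiSeq flow-cell, with NaOH stripping and re-annealing between cycles. In each cycle, clusters annealed to 100 nM quencher-labelled ATP aptamer were imaged in selection buffer, then after 15 min with 500 uM ATP at 22 °C. Per cluster, the fluorescence ratio is summed target-cycle over summed buffer-cycle Cy3 intensity, averaged per switch-domain sequence. Only clusters within 100-1000 RFU were kept.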
For the sequence CAGGGGTTG, the switch fluorescence ratio came out at 0.956.
Under ACAGTTTGCT stands 0.972; under ACCCAGTGAC, 1.64; under GAATGTGGAG, 0.996.
For the sequence CTGTATTGCT, the switch fluorescence ratio was found to be 1.02.
Consider ACGGTTAGGT, for which the switch fluorescence ratio was determined as 0.996.
The value for TGGTATTTT was 1.
For the sequence AATTATAGCG, the switch fluorescence ratio is 1.01.
The value for CTGCAACTAT was 2.47; that for TAGCAATATT was 4.61.
AAATTAGATT: the switch fluorescence ratio came out at 0.987.
Regarding CTAGAGAAAG, the switch fluorescence ratio worked out at 1.01.
GGCCTTTCGT: the switch fluorescence ratio was 1.02.
The value for TAGAACGATT was 0.998.
Turning to TATTCAATCG, the switch fluorescence ratio stood at 1.1.
The value for ATGGAAAACT was 1.06.
The value for TGGCATTCGG was 1.01.
In the case of TTCCACTATT, the switch fluorescence ratio came to 1.07.
The value for ATGGGTGACA was 1.04.
Under TTACTGATAA stands 1.04; under CTCGGTAT, 0.983; under ACCATTTATA, 1.03.
Consider AAAGGCAGGG, for which the switch fluorescence ratio came out at 0.968.
Under CGAATCTGGT stands 1.
The value for CCCCTCTGTG was 2.37.
On to GCGCCAGTGT, for which the switch fluorescence ratio is 1.02.
The value for CGGACGTCTT was 1.02; that for GTCTTTGACG was 0.96.
As to GGACGGTCGC, the switch fluorescence ratio is 0.997.
Under CCATGGGCAC stands 1.07; under CTCGTTTAAG, 0.999; under CATGACATTG, 1.08.
Under AACTGCTAAG stands 0.999.
GATAACCCGA: the switch fluorescence ratio was found to be 1.19.
Under TAACTATTA stands 1.02.
Regarding TTTCTCGTGA, the switch fluorescence ratio stood at 1.39.
Under ATGGTGCGCA stands 0.892.
Under GATGGGTCTC stands 1.05.
The value for CGCCGTTGAG was 0.982; that for TCCGGCATGT was 1.2.
Consider TGCCGGGCGC, for which the switch fluorescence ratio came to 1.
Under TCCGAAAATT stands 0.972; under TTACCGCGTA, 1.06; under GCCTGCTCCG, 1.76.
Under CCAACGATTG stands 1.02; under AGAAAGTGCG, 1.03.
Under GTGCGCCCGA stands 1.01; under TATTTTACTT, 1.02.
Regarding ATCGCAACCT, the switch fluorescence ratio worked out at 2.12.
For TCTGGGCTAC, the switch fluorescence ratio was 3.77.
The value for GTGTGGACGG was 1.
With GAGAGTGCTA, the switch fluorescence ratio came to 1.
The value for TGGGGTACTC was 1.05.
Under CAGAACTGGG stands 0.983.
Turning to GAAACTCAGG, the switch fluorescence ratio was found to be 1.04.
Take TACCCATAAC: the switch fluorescence ratio is 1.11.
Under CATCTCGACT stands 0.998; under AAGGCACGCA, 0.993; under AACTGGTATC, 1.01.
For the sequence CGAAACGAAC, the switch fluorescence ratio is 1.09.
In the case of CCCAAGAAGT, the switch fluorescence ratio was 0.989.
The value for TCAAGATTAA was 0.973; that for AGTTTTAGGG was 1.
The value for TGTGGGCGCA was 1; that for AAGAGCCTTC was 1.05; that for ATTAACAATC was 1.1.
Under CCATGTATTT stands 1.07; under TTACGATTTA, 1.01.
For the sequence CGAATCGCAG, the switch fluorescence ratio turned out to be 1.1.
For GTCGCATATG, the switch fluorescence ratio came to 1.08.
In the case of AGCGGGTTCA, the switch fluorescence ratio was 1.01.
The value for GGGCACAGAC was 1.1; that for TAAAAGGTTA was 1.01.
Take TGGAAAAAAT: the switch fluorescence ratio came out at 0.99.
Under AAATGAGCAT stands 1.01; under TCGATCTAGG, 0.995; under GCACGGGCGA, 0.998.
The value for TTCGATTCAG was 1.01; that for TCGTCCTGT was 1.1; that for GATTCGCCGA was 1.04.
With CTATGGTACT, the switch fluorescence ratio was 1.02.
Under CGTAAAGTTA stands 1.05; under CCGGGCGGCA, 1.06; under AGTAGGCACC, 1.03.
Under TTACTCAGGC stands 0.998; under GGCGTCCCGC, 0.999; under ATCTTAAAAG, 0.956.
The value for CCTCTCGATC was 5.53; that for ACCCGTACGC was 1.78.
Turning to AGGTGAGCAC, the switch fluorescence ratio turned out to be 0.988.
The value for ATGGGTGGAC was 1.04; that for AGGGCTGATC was 1.01; that for CCGACTCTGA was 1.66.
Under CGTAGGTCA stands 0.986; under GACACAAGAT, 1.18; under CTTAGCTGGG, 1.05.
Under GACCTGATAT stands 1.03; under TCGGATGCAT, 3.07; under CTAGTTGTGC, 0.975.
For the sequence CTGTCTTGGT, the switch fluorescence ratio was 0.99.
For TTCAAACGGC, the switch fluorescence ratio amounted to 0.977.
The value for TATTTGGGC was 1.07; that for TGACTTCCTC was 2.51.
Under CCGATTATCA stands 1.
The value for GCCGGTGCCA was 1.02.
In the case of CATTGAAGTA, the switch fluorescence ratio is 0.989.
Under CGTCAGGGCC stands 1.
Under GCCGGACGCA stands 1.19; under CAACTATCTT, 1.03; under GCTTGCTTG, 0.99.
The value for AACCAGTGCA was 1.02; that for CAAAGAAGTC was 0.961.
Turning to TAGGAGGAGA, the switch fluorescence ratio was found to be 1.01.
The value for CGACTGACCG was 1.05; that for ACAGGAAGTC was 0.983.
The value for GTGCAATTGA was 1.08.
Under GTTCTAGAGA stands 0.975.
Regarding ATAGAAACTT, the switch fluorescence ratio turned out to be 1.09.
The value for CGTCGGAGCT was 1.07.
In the case of TCCCGGTTCC, the switch fluorescence ratio came out at 1.04.
